± gives the standard deviation of the averaged measurements. Restriction of a single-cycle SIVsab GFP reporter by TRIM5α v1-loop variants in CRFK cells. Human variants: read share among cells still uninfected after two challenges over input, higher = gained restriction. Rhesus variants: share among infected cells over input, higher = lost restriction. Reporter dose not given per row. No active / inactive call per row; the paper calls a change when both replicates lie above its controls (mean + 2 SD of stop or wild-type variants, or the top frameshift score). Residues outside the varied loop are taken from Swiss-Prot. The paper reads the human single-substitution scores as noise; they and the rhesus combinations repeat poorly (rank correlation 0.3 to 0.4), indel scores repeat only for the top variants, rhesus substitutions well (0.9).
System: SIVsab (simian immunodeficiency virus of sabaeus monkeys), single-cycle GFP reporter, in CRFK cells
Assay: enrichment among uninfected cells over input (fold); higher = stronger restriction
Details: library: human / rhesus combinations
Method: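 Pools of CRFK cells expressing variants of the TRIM5α v1 loop were challenged with the single-cycle reporter, sorted by GFP and sequenced; mean of two replicates.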

Sequence | enrichment
MASGILVNVKEEVTCPICLELLTQPLSLDCGHSFCQACLTANHKKSMLDKGESSCPVCRISYQPENIRPNRHVANIVEKLREVKLSPEGQKVDHCARHGEKLLLFCQEDGKVICWLCERSQEHRGHHTFLTEEVAREYQVKLQAALEMLRQKQQEAEELEADIREEKASWKTQIQYDKTNVLADFEQLRDILDWEESNELQNLEKEEEDILKSLTNSETEMVQQTQSLRELISDLEHRLQGSVMELLQGVDGVIKRTENVTLKKPETFPKNQRRVFRAPDLKGMLEVFRELTDVRRYWVDVTVAPNNISCAVISEDKRQVSSPKPQIIYQARGTLFTFQSFVNFNYCTGILGSQSITSGKHYWEVDVSKKTAWILGVCAGFQPDAMCNIEKNENYQPKYGYWVIGLEEGVKCSAFQDSSFHTPSVPFIVPLSVIICPDRVGVFLDYEACTVSFFNITNHGFLIYKFSHCSFSQPVFPYLNPRKCGVPMTLCSPSS [human TRIM5α, 330-340 = QARGTLFTFQSFV] | 0.0693 ± 0.028
MASGILVNVKEEVTCPICLELLTQPLSLDCGHSFCQACLTANHKKSMLDKGESSCPVCRISYQPENIRPNRHVANIVEKLREVKLSPEGQKVDHCARHGEKLLLFCQEDGKVICWLCERSQEHRGHHTFLTEEVAREYQVKLQAALEMLRQKQQEAEELEADIREEKASWKTQIQYDKTNVLADFEQLRDILDWEESNELQNLEKEEEDILKSLTNSETEMVQQTQSLRELISDLEHRLQGSVMELLQGVDGVIKRTENVTLKKPETFPKNQRRVFRAPDLKGMLEVFRELTDVRRYWVDVTVAPNNISCAVISEDKRQVSSPKPQIIYGAPGTRYPSFTNFNYCTGILGSQSITSGKHYWEVDVSKKTAWILGVCAGFQPDAMCNIEKNENYQPKYGYWVIGLEEGVKCSAFQDSSFHTPSVPFIVPLSVIICPDRVGVFLDYEACTVSFFNITNHGFLIYKFSHCSFSQPVFPYLNPRKCGVPMTLCSPSS [human TRIM5α, 330-340 = GAPGTRYPSFT] | 0.00242 ± 0.0006
MASGILVNVKEEVTCPICLELLTQPLSLDCGHSFCQACLTANHKKSMLDKGESSCPVCRISYQPENIRPNRHVANIVEKLREVKLSPEGQKVDHCARHGEKLLLFCQEDGKVICWLCERSQEHRGHHTFLTEEVAREYQVKLQAALEMLRQKQQEAEELEADIREEKASWKTQIQYDKTNVLADFEQLRDILDWEESNELQNLEKEEEDILKSLTNSETEMVQQTQSLRELISDLEHRLQGSVMELLQGVDGVIKRTENVTLKKPETFPKNQRRVFRAPDLKGMLEVFRELTDVRRYWVDVTVAPNNISCAVISEDKRQVSSPKPQIIYGAPGTRFTFQTFVNFNYCTGILGSQSITSGKHYWEVDVSKKTAWILGVCAGFQPDAMCNIEKNENYQPKYGYWVIGLEEGVKCSAFQDSSFHTPSVPFIVPLSVIICPDRVGVFLDYEACTVSFFNITNHGFLIYKFSHCSFSQPVFPYLNPRKCGVPMTLCSPSS [human TRIM5α, 330-340 = GAPGTRFTFQTFV] | 0.178 ± 0.091
MASGILVNVKEEVTCPICLELLTQPLSLDCGHSFCQACLTANHKKSMLDKGESSCPVCRISYQPENIRPNRHVANIVEKLREVKLSPEGQKVDHCARHGEKLLLFCQEDGKVICWLCERSQEHRGHHTFLTEEVAREYQVKLQAALEMLRQKQQEAEELEADIREEKASWKTQIQYDKTNVLADFEQLRDILDWEESNELQNLEKEEEDILKSLTNSETEMVQQTQSLRELISDLEHRLQGSVMELLQGVDGVIKRTENVTLKKPETFPKNQRRVFRAPDLKGMLEVFRELTDVRRYWVDVTVAPNNISCAVISEDKRQVSSPKPQIIYGARGTRYTFQTLTNFNYCTGILGSQSITSGKHYWEVDVSKKTAWILGVCAGFQPDAMCNIEKNENYQPKYGYWVIGLEEGVKCSAFQDSSFHTPSVPFIVPLSVIICPDRVGVFLDYEACTVSFFNITNHGFLIYKFSHCSFSQPVFPYLNPRKCGVPMTLCSPSS [human TRIM5α, 330-340 = GARGTRYTFQTLT] | 0.15 ± 0.0018

Same assay, conditions: library: insertions and deletions

Sequence | enrichment
MASGILVNVKEEVTCPICLELLTQPLSLDCGHSFCQACLTANHKKSMLDKGESSCPVCRISYQPENIRPNRHVANIVEKLREVKLSPEGQKVDHCARHGEKLLLFCQEDGKVICWLCERSQEHRGHHTFLTEEVAREYQVKLQAALEMLRQKQQEAEELEADIREEKASWKTQIQYDKTNVLADFEQLRDILDWEESNELQNLEKEEEDILKSLTNSETEMVQQTQSLRELISDLEHRLQGSVMELLQGVDGVIKRTENVTLKKPETFPKNQRRVFRAPDLKGMLEVFRELTDVRRYWVDVTVAPNNISCAVISEDKRQVSSPKPQIIYGARGTRYQTFVGTRYQTFVNFNYCTGILGSQSITSGKHYWEVDVSKKTAWILGVCAGFQPDAMCNIEKNENYQPKYGYWVIGLEEGVKCSAFQDSSFHTPSVPFIVPLSVIICPDRVGVFLDYEACTVSFFNITNHGFLIYKFSHCSFSQPVFPYLNPRKCGVPMTLCSPSS [human TRIM5α, 8-codon duplication at 333] | 0.498 ± 0.24
MASGILVNVKEEVTCPICLELLTQPLSLDCGHSFCQACLTANHKKSMLDKGESSCPVCRISYQPENIRPNRHVANIVEKLREVKLSPEGQKVDHCARHGEKLLLFCQEDGKVICWLCERSQEHRGHHTFLTEEVAREYQVKLQAALEMLRQKQQEAEELEADIREEKASWKTQIQYDKTNVLADFEQLRDILDWEESNELQNLEKEEEDILKSLTNSETEMVQQTQSLRELISDLEHRLQGSVMELLQGVDGVIKRTENVTLKKPETFPKNQRRVFRAPDLKGMLEVFRELTDVRRYWVDVTVAPNNISCAVISEDKRQVSSPKPQIIYGARGTRYQTRYQTFVNFNYCTGILGSQSITSGKHYWEVDVSKKTAWILGVCAGFQPDAMCNIEKNENYQPKYGYWVIGLEEGVKCSAFQDSSFHTPSVPFIVPLSVIICPDRVGVFLDYEACTVSFFNITNHGFLIYKFSHCSFSQPVFPYLNPRKCGVPMTLCSPSS [human TRIM5α, 4-codon duplication at 334] | 0.297 ± 0.41
MASGILVNVKEEVTCPICLELLTQPLSLDCGHSFCQACLTANHKKSMLDKGESSCPVCRISYQPENIRPNRHVANIVEKLREVKLSPEGQKVDHCARHGEKLLLFCQEDGKVICWLCERSQEHRGHHTFLTEEVAREYQVKLQAALEMLRQKQQEAEELEADIREEKASWKTQIQYDKTNVLADFEQLRDILDWEESNELQNLEKEEEDILKSLTNSETEMVQQTQSLRELISDLEHRLQGSVMELLQGVDGVIKRTENVTLKKPETFPKNQRRVFRAPDLKGMLEVFRELTDVRRYWVDVTVAPNNISCAVISEDKRQVSSPKPQTRYQTFVNFNYCTGILGSQSITSGKHYWEVDVSKKTAWILGVCAGFQPDAMCNIEKNENYQPKYGYWVIGLEEGVKCSAFQDSSFHTPSVPFIVPLSVIICPDRVGVFLDYEACTVSFFNITNHGFLIYKFSHCSFSQPVFPYLNPRKCGVPMTLCSPSS [human TRIM5α, 7-codon deletion at 327] | 0.691 ± 0.3
MASGILVNVKEEVTCPICLELLTQPLSLDCGHSFCQACLTANHKKSMLDKGESSCPVCRISYQPENIRPNRHVANIVEKLREVKLSPEGQKVDHCARHGEKLLLFCQEDGKVICWLCERSQEHRGHHTFLTEEVAREYQVKLQAALEMLRQKQQEAEELEADIREEKASWKTQIQYDKTNVLADFEQLRDILDWEESNELQNLEKEEEDILKSLTNSETEMVQQTQSLRELISDLEHRLQGSVMELLQGVDGVIKRTENVTLKKPETFPKNQRRVFRAPDLKGMLEVFRELTDVRRYWVDVTVAPNNISCAVISEDKRQVSSPKPQIIYGARGTRYQARGTRYQTFVNFNYCTGILGSQSITSGKHYWEVDVSKKTAWILGVCAGFQPDAMCNIEKNENYQPKYGYWVIGLEEGVKCSAFQDSSFHTPSVPFIVPLSVIICPDRVGVFLDYEACTVSFFNITNHGFLIYKFSHCSFSQPVFPYLNPRKCGVPMTLCSPSS [human TRIM5α, 7-codon duplication at 331] | 0.856 ± 0.034
MASGILVNVKEEVTCPICLELLTQPLSLDCGHSFCQACLTANHKKSMLDKGESSCPVCRISYQPENIRPNRHVANIVEKLREVKLSPEGQKVDHCARHGEKLLLFCQEDGKVICWLCERSQEHRGHHTFLTEEVAREYQVKLQAALEMLRQKQQEAEELEADIREEKASWKTQIQYDKTNVLADFEQLRDILDWEESNELQNLEKEEEDILKSLTNSETEMVQQTQSLRELISDLEHRLQGSVMELLQGVDGVIKRTENVTLKKPETFPKNQRRVFRAPDLKGMLEVFRELTDVRRYWVDVTVAPNNISCAVISEDKRQVSSPKPQIIYGARGTRYQTFNYCTGILGSQSITSGKHYWEVDVSKKTAWILGVCAGFQPDAMCNIEKNENYQPKYGYWVIGLEEGVKCSAFQDSSFHTPSVPFIVPLSVIICPDRVGVFLDYEACTVSFFNITNHGFLIYKFSHCSFSQPVFPYLNPRKCGVPMTLCSPSS [human TRIM5α, 3-codon deletion at 340] | 0.958 ± 0.55
MASGILVNVKEEVTCPICLELLTQPLSLDCGHSFCQACLTANHKKSMLDKGESSCPVCRISYQPENIRPNRHVANIVEKLREVKLSPEGQKVDHCARHGEKLLLFCQEDGKVICWLCERSQEHRGHHTFLTEEVAREYQVKLQAALEMLRQKQQEAEELEADIREEKASWKTQIQYDKTNVLADFEQLRDILDWEESNELQNLEKEEEDILKSLTNSETEMVQQTQSLRELISDLEHRLQGSVMELLQGVDGVIKRTENVTLKKPETFPKNQRRVFRAPDLKGMLEVFRELTDVRRYWVDVTVAPNNISCAVISEDKRQVSSPKPQIIYGARGGARGTRYQTFVNFNYCTGILGSQSITSGKHYWEVDVSKKTAWILGVCAGFQPDAMCNIEKNENYQPKYGYWVIGLEEGVKCSAFQDSSFHTPSVPFIVPLSVIICPDRVGVFLDYEACTVSFFNITNHGFLIYKFSHCSFSQPVFPYLNPRKCGVPMTLCSPSS [human TRIM5α, 4-codon duplication at 330] | 2.21 ± 2.3
MASGILVNVKEEVTCPICLELLTQPLSLDCGHSFCQACLTANHKKSMLDKGESSCPVCRISYQPENIRPNRHVANIVEKLREVKLSPEGQKVDHCARHGEKLLLFCQEDGKVICWLCERSQEHRGHHTFLTEEVAREYQVKLQAALEMLRQKQQEAEELEADIREEKASWKTQIQYDKTNVLADFEQLRDILDWEESNELQNLEKEEEDILKSLTNSETEMVQQTQSLRELISDLEHRLQGSVMELLQGVDGVIKRTENVTLKKPETFPKNQRRVFRAPDLKGMLEVFRELTDVRRYWVDVTVAPNNISCAVISEDKRQVSSPKPQIIYGARGTRYFVNFNYCTGILGSQSITSGKHYWEVDVSKKTAWILGVCAGFQPDAMCNIEKNENYQPKYGYWVIGLEEGVKCSAFQDSSFHTPSVPFIVPLSVIICPDRVGVFLDYEACTVSFFNITNHGFLIYKFSHCSFSQPVFPYLNPRKCGVPMTLCSPSS [human TRIM5α, 2-codon deletion at 337] | 0.525 ± 0.44
MASGILVNVKEEVTCPICLELLTQPLSLDCGHSFCQACLTANHKKSMLDKGESSCPVCRISYQPENIRPNRHVANIVEKLREVKLSPEGQKVDHCARHGEKLLLFCQEDGKVICWLCERSQEHRGHHTFLTEEVAREYQVKLQAALEMLRQKQQEAEELEADIREEKASWKTQIQYDKTNVLADFEQLRDILDWEESNELQNLEKEEEDILKSLTNSETEMVQQTQSLRELISDLEHRLQGSVMELLQGVDGVIKRTENVTLKKPETFPKNQRRVFRAPDLKGMLEVFRELTDVRRYWVDVTVAPNNISCAVISEDKRQVSSPKPQIIYGARGTRYQTFVNFNYQTFVNFNYCTGILGSQSITSGKHYWEVDVSKKTAWILGVCAGFQPDAMCNIEKNENYQPKYGYWVIGLEEGVKCSAFQDSSFHTPSVPFIVPLSVIICPDRVGVFLDYEACTVSFFNITNHGFLIYKFSHCSFSQPVFPYLNPRKCGVPMTLCSPSS [human TRIM5α, 8-codon duplication at 337] | 0.787 ± 0.92
